# Experimental data as given in article PMC10965988.
# Chains of the proteins cited; added tags and fusions are not shown. Lines headed by an entry give the natural chain unless they say otherwise; changes in a name come on top. A line that says so, or that is headed by a name, gives the form on record, which may keep a tag or linker. Residues count along the entry.
# UniProt P16234: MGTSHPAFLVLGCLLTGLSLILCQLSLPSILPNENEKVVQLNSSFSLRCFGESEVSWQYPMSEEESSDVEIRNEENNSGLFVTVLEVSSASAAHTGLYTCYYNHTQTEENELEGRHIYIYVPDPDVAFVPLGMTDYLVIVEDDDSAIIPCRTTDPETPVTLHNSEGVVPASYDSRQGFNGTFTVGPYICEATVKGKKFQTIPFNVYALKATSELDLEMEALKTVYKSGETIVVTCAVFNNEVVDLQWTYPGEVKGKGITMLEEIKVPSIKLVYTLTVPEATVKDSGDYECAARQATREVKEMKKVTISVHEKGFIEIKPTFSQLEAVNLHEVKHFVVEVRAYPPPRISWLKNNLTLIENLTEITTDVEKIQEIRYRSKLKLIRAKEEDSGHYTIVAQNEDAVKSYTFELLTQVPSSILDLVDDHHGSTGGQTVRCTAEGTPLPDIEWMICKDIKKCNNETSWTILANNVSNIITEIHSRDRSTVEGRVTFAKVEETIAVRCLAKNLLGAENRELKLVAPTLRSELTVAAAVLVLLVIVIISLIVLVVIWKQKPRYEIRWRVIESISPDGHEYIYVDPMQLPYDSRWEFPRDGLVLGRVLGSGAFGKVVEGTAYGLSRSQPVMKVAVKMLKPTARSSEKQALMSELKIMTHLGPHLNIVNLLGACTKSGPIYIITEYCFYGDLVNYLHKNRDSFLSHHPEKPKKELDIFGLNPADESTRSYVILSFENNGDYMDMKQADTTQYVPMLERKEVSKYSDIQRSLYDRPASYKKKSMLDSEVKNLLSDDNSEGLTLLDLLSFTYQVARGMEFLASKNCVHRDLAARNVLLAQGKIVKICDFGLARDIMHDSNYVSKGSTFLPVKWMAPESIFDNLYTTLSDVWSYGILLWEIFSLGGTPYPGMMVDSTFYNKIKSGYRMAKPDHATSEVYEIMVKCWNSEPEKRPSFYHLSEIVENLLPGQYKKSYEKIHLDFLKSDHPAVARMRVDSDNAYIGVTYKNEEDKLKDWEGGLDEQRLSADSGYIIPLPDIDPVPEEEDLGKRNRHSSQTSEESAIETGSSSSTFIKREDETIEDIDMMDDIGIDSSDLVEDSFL
# PDGFRα K385I truncated after residue R979, fused to nanoluciferase or HaloTag (P16234, form named): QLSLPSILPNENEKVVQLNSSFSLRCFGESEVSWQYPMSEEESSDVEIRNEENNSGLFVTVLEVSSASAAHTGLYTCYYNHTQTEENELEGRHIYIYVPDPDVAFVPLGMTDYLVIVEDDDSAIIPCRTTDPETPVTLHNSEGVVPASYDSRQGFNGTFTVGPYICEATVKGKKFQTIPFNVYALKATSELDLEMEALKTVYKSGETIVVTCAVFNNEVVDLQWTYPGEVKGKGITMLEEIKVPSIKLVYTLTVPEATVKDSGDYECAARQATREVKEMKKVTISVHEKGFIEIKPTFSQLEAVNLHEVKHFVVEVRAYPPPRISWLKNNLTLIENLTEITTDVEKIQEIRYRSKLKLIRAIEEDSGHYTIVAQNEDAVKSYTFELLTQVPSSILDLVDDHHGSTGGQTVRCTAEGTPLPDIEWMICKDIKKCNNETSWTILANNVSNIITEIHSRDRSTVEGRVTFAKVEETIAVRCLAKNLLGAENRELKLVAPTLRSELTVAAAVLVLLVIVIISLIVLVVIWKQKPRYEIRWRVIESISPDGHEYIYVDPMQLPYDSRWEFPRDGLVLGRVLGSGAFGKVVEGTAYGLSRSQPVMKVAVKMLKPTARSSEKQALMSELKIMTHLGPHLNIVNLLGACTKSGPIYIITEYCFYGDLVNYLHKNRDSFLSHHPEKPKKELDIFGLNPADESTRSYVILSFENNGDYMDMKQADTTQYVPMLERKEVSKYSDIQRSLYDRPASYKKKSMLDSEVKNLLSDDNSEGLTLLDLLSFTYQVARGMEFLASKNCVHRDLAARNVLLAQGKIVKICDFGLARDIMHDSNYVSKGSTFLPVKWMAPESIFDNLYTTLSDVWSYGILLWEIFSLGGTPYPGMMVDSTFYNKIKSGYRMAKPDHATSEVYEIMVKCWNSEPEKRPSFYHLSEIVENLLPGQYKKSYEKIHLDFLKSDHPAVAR
# platelet-derived growth factor receptor alpha (PDGFRα) K385L, HA- and MYC-tagged (P16234, form named): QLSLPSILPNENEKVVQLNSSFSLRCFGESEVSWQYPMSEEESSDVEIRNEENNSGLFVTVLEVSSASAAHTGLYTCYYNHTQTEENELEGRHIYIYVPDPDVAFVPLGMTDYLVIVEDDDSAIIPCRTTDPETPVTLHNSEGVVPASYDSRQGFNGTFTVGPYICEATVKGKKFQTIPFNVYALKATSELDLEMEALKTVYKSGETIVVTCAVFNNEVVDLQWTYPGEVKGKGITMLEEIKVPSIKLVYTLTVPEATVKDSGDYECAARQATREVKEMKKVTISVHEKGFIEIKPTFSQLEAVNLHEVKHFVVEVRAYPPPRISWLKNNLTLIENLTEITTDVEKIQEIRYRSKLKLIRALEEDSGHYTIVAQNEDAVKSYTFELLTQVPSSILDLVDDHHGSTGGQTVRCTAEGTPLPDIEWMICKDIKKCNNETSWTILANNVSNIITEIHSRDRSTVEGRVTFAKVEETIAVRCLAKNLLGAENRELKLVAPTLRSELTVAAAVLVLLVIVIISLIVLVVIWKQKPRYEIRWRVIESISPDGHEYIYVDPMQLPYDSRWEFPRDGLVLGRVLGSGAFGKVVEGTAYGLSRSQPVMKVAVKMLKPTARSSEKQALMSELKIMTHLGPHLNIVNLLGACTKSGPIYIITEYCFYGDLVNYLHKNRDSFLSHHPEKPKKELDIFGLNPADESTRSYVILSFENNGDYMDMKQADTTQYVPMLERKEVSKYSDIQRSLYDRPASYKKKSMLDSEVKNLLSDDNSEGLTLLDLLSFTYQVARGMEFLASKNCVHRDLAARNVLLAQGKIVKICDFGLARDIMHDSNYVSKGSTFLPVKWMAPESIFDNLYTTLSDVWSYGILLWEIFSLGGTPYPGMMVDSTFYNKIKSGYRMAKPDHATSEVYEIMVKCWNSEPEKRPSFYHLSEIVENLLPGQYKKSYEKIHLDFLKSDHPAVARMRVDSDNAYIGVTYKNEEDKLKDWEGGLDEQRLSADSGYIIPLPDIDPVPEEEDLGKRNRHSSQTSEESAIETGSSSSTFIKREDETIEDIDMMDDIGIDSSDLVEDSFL
# UniProt P40238, residues 26-635: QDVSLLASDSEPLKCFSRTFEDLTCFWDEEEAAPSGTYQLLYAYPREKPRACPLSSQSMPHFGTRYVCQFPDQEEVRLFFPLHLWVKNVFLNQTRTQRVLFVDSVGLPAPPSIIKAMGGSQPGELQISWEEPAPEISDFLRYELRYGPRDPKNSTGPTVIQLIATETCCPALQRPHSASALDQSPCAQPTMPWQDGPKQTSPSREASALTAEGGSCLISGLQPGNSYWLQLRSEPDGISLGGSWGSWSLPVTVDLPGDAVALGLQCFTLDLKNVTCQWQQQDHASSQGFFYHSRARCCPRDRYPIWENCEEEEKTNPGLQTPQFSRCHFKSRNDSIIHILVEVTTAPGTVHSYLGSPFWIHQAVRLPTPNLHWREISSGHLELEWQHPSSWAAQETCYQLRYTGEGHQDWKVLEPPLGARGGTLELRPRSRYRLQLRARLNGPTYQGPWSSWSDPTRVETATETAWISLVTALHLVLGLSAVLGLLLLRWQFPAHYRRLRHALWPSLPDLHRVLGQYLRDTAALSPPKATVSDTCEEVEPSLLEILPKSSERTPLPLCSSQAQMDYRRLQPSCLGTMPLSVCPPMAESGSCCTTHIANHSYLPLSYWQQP
# Results are given in words; binding and its absence hold for the method and conditions named. Binding seen in cells or lysates may run through a third protein. Some binding calls cover weakened binding; strength is not graded here.
# Columns and labels:
# [1] = target: PDGFRα K385I truncated after residue R979, fused to nanoluciferase or HaloTag (UniProt P16234); assay: FRET or BRET; NanoBRET in living HEK293T cells between nanoluciferase and HaloTag (618 Ligand) fusions, 1 ng of each construct, read at 37 °C; no ligand named for these samples
# [2] = target: PDGFRα wild type truncated after residue R979, fused to nanoluciferase or HaloTag (UniProt P16234); assay: FRET or BRET; NanoBRET in living HEK293T cells between nanoluciferase and HaloTag (618 Ligand) fusions, 1 ng of each construct, read at 37 °C; cells stimulated with PDGF-BB
# [3] = target: platelet-derived growth factor receptor alpha (PDGFRα) K385L, HA- and MYC-tagged (UniProt P16234); assay: co-IP; HEK293T co-transfected with HA- and MYC-tagged PDGFRα; lysis in RIPA buffer; immunoprecipitation with anti-HA overnight at 4 °C, Protein A/G resin; western blot with anti-MYC; in the absence of ligand
# [4] = target: platelet-derived growth factor receptor alpha (PDGFRα), wild type, HA- and MYC-tagged (UniProt P16234); assay: as above
# [5] = target: PDGFRα wild type truncated after residue R979, fused to nanoluciferase or HaloTag (UniProt P16234); assay: FRET or BRET; NanoBRET in living HEK293T cells between nanoluciferase and HaloTag (618 Ligand) fusions, 1 ng of each construct, read at 37 °C; no ligand named for these samples
substance,measurement,setting,value
"PDGFRα K385I truncated after residue R979, fused to nanoluciferase or HaloTag (from UniProt P16234 24-979) (receptor)",binding,[1],binds
"PDGFRα wild type truncated after residue R979, fused to nanoluciferase or HaloTag (from UniProt P16234 24-979) (receptor)",binding,[2],binds
"platelet-derived growth factor receptor alpha (PDGFRα) K385L, HA- and MYC-tagged (from UniProt P16234 24-1089)",binding,[3],binds
"platelet-derived growth factor receptor alpha (PDGFRα), wild type, HA- and MYC-tagged (from UniProt P16234 24-1089)",binding,[4],binds weakly
thrombopoietin receptor (TPOR) fused to nanoluciferase or HaloTag (from UniProt P40238 26-635),binding,[1],no binding
same,binding,[5],no binding
